No constants are given. Whether binding was seen depends on the method and setting. Binding seen in cells or lysates may run through a third protein. Some results given as binding are weak or reduced against the parent protein; the word gives no strength.
How the values were obtained:
[1] = target: FLAG-tagged Smurf1-C699A (human) (UniProt Q9HCE7); assay: co-IP; MCF-7 cells transfected with FLAG/Smurf1-C699A or FLAG/Smurf2-C716A and HA/ERK1 or HA/ERK2; anti-Flag IP and immunoblot; lysis buffer TNTE 0.5% (50 mM Tris-HCl pH 7.5, 150 mM NaCl, 1 mM EDTA, 0.5% Triton X-100)
[2] = target: FLAG-tagged Smurf2-C716A (human) (UniProt Q9HAU4); assay: as above
[3] = target: Flag-tagged ERK2 (human) (UniProt P28482); assay: co-IP; lysates of MCF-7 cells expressing Flag-ERK2; anti-FLAG IP, immunoblot for endogenous Smurf1
[4] = target: GST/Smurf1-WT phosphorylated by ERK2-R67S (human) (UniProt Q9HCE7); assay: pull-down; GST/Smurf1-WT or GST/Smurf1-T223A purified from bacteria, incubated with ERK2-R67S for kinase assay, then GST pull-down with RhoA N19, immunoblot; source of RhoA N19 not told
[5] = target: FLAG/Smurf1-T223D (human) (UniProt Q9HCE7); assay: co-IP; MCF-7 cells transfected with FLAG/Smurf1 (WT, T223A or T223D) and HA/RhoA N19; anti-Flag IP and immunoblot; with or without TGFβ for 2 h, with or without 5 μM U0126 pretreatment for 2 h
[6] = target: FLAG/Smurf1-WT (human) (UniProt Q9HCE7); assay: as above

The chains behind the UniProt entries cited, without tags or fusion partners. Where a name states a change or a piece, a line headed by the entry shows the natural chain unless it says otherwise. A line that says so, or that is headed by a name, gives the form on record, which may keep a tag or linker.
UniProt Q9HCE7: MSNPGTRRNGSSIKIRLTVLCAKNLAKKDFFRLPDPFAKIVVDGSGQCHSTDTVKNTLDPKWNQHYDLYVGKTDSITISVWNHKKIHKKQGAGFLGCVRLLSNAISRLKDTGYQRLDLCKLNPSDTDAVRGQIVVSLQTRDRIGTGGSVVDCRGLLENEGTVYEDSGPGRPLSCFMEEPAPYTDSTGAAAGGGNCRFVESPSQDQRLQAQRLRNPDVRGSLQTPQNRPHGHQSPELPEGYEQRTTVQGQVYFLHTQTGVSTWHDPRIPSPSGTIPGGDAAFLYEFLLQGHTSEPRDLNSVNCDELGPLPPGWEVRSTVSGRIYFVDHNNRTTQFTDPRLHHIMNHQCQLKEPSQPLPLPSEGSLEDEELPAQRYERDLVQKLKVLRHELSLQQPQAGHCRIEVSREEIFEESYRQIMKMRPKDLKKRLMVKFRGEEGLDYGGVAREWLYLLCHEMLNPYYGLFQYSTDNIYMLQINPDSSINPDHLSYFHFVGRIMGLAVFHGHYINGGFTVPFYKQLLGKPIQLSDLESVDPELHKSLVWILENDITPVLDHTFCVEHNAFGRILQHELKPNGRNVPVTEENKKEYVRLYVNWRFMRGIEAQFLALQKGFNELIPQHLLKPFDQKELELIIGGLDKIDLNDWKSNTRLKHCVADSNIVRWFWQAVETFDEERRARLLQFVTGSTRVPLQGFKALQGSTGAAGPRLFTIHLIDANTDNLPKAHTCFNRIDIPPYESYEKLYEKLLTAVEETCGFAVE
FLAG-tagged Smurf1-C699A (Q9HCE7, form named): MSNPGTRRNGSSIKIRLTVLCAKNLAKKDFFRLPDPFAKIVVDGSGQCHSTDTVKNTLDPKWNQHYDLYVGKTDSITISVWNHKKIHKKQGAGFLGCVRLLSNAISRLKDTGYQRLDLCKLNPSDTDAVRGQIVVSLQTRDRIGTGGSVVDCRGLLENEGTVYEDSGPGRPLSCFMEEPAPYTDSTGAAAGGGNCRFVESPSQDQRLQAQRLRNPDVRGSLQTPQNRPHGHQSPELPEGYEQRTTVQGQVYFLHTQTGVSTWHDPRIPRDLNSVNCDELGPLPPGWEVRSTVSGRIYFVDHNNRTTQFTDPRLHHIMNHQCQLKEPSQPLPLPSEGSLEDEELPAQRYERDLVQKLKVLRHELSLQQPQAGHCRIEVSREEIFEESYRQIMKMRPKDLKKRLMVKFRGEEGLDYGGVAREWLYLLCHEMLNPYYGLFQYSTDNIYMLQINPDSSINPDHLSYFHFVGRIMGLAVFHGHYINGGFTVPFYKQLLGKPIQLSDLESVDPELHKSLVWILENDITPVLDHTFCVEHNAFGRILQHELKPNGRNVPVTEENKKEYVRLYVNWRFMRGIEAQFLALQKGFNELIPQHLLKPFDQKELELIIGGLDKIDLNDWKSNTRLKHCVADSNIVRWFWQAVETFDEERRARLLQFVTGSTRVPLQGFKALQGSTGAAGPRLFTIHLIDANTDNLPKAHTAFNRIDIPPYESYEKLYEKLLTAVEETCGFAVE
FLAG/Smurf1-WT (Q9HCE7, form named): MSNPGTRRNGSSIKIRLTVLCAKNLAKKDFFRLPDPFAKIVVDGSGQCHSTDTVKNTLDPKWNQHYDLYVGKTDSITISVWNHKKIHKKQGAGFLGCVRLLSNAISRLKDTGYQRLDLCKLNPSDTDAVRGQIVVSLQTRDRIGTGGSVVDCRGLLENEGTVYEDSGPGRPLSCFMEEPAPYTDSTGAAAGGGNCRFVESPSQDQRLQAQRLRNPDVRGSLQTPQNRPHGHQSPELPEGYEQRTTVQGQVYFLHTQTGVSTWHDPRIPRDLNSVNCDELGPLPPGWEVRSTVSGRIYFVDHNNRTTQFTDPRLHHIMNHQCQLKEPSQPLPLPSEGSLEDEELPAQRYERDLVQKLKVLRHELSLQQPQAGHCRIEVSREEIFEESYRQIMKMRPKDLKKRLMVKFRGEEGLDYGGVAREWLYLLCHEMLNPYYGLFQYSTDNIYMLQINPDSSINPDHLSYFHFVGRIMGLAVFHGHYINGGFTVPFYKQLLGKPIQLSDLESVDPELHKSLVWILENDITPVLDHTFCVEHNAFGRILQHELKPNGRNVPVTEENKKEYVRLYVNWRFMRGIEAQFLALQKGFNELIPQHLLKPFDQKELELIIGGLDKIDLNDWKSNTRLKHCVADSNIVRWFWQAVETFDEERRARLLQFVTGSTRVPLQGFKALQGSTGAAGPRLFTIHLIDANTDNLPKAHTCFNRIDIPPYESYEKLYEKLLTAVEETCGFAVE
FLAG/Smurf1-T223D (Q9HCE7, form named): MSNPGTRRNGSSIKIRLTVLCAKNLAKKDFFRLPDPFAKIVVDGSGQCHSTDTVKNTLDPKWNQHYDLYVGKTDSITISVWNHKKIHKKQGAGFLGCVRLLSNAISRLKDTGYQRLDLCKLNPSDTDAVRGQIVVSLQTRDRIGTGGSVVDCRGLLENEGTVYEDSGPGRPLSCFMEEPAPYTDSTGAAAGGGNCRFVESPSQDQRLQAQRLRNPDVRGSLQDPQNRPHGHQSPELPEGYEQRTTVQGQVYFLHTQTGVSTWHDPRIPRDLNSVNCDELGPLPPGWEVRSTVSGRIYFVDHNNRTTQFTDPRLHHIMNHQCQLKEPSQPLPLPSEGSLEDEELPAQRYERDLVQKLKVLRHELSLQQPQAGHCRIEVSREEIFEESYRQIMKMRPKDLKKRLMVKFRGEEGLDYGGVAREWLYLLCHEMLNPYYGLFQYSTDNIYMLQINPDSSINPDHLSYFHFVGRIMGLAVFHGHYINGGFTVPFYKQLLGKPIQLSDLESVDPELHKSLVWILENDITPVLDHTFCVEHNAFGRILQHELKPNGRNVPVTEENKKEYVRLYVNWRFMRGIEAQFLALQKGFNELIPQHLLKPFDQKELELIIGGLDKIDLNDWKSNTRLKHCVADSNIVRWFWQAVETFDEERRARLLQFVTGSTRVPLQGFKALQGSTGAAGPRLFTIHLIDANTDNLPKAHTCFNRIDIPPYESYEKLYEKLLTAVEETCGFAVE
UniProt Q9HAU4: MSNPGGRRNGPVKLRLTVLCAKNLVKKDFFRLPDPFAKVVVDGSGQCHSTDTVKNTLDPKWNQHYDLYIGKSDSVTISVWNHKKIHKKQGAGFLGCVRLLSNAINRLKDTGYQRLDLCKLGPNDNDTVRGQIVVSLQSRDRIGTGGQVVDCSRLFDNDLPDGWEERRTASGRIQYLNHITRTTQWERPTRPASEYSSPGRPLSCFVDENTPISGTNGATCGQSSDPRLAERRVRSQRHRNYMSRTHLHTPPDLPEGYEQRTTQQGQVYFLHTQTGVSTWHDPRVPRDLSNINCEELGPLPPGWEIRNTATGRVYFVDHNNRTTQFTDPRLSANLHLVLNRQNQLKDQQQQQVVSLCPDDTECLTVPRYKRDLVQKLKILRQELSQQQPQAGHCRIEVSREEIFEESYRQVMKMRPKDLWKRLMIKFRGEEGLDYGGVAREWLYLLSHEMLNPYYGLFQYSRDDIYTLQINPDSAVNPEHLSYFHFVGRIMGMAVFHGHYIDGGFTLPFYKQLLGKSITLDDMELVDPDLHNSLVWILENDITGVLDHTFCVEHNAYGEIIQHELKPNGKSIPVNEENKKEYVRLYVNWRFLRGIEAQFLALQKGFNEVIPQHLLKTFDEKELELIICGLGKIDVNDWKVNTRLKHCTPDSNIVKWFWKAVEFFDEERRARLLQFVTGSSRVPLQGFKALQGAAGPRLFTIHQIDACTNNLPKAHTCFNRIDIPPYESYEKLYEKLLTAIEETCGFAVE
UniProt P28482: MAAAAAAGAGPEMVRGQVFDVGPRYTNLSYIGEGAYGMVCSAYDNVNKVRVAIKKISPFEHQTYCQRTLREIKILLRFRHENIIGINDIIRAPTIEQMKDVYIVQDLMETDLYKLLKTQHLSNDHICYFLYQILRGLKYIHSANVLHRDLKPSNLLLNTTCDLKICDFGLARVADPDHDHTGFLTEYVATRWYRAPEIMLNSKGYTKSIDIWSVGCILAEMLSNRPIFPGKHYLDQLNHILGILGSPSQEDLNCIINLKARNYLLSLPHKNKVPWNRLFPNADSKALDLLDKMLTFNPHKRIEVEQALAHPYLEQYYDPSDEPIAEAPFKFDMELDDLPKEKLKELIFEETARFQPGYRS
UniProt P27361: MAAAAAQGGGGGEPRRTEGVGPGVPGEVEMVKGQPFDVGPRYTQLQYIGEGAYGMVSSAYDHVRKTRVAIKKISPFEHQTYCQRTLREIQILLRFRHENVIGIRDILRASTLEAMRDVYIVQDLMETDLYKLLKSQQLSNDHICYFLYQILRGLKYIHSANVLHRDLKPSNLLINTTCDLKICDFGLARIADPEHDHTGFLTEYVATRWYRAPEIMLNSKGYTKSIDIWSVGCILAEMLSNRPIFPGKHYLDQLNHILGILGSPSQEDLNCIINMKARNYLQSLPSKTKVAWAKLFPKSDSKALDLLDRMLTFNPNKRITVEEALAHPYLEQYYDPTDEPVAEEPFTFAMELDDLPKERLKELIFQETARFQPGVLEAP
UniProt P61586: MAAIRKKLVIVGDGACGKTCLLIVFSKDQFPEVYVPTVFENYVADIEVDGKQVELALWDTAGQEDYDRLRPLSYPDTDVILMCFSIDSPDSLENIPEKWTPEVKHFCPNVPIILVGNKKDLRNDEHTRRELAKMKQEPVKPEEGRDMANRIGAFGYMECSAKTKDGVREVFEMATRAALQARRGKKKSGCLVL
HA/RhoA N19 (P61586, form named): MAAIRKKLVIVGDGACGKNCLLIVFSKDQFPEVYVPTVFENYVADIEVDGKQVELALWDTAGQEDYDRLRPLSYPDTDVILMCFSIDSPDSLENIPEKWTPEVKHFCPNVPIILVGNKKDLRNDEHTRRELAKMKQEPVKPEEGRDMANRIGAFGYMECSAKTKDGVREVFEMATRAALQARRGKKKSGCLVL

Row | binding [1] | binding [2] | Substance | other results
1 | binds | no binding | HA-tagged ERK2 (from UniProt P28482 1-360) | –
2 | binds | no binding | HA-tagged ERK1 (from UniProt P27361 1-379) | –
3 | – | – | endogenous Smurf1 (MCF-7) (from UniProt Q9HCE7 1-757) | binding [3]: binds
4 | – | – | RhoA N19 (used in the GST pull-down) (from UniProt P61586 1-193) | binding [4]: binds
5 | – | – | HA/RhoA N19 (from UniProt P61586 1-193) | binding [5]: binds; binding [6]: binds
